# Assay results published in PubChem BioAssay AID1508642 (National Center for Advancing Translational Sciences (NCATS), 2021).
# In all, about 43,000 compounds went through this assay and about 200 (0.47%) were called active. The shares of active, inactive and inconclusive entries below differ from those in the screen. The call rests on the fitted dose curve; in most records, active means well fitted cell-killing curve with a large enough effect; inconclusive means small, poorly fitted or top-dose-only effect, or effect the other way; inactive means flat fitted curve, though single readings scatter. A potency beside an inconclusive call is a rough fit, not a confirmed value.
# Assay: Cell viability qHTS assay in S16 Pmp22-F2sN cells; further: nearly all actives have a fitted effect of over 65% in size
# Settings: S16 Pmp22-F2sN Schwann cells (luciferase reporters placed in the Pmp22 gene) viability, CellTiter-Glo, 24 h; activity change, negative = cytotoxicity: at 57.5 µM (top of the series)
# Method in brief: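 Luminescence from CellTiter-Glo, read by CCD camera after a 15 min room-temperature incubation, served as the viability signal. Reporter Schwann cells (S16 Pmp22-F2sN) had been treated with pin-transferred compounds for 24 h at 37C.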
# On the % scale 0 is the no-effect control and ±100 the full control effect; potency means the concentration at half of the fitted maximal effect; tags describe the fitted curve by direction and shape.
Compound,Potency,"activity change, negative = cytotoxicity"
COc1ccc(OCC(O)Cn2c(=N)n(CCN3CCCCC3)c3ccccc32)cc1 (configuration not stated),"inconclusive: 39.8 µM [cytotoxic, single point]",–
Cc1ccc(S(=O)(=O)C(CNC(=O)C(=O)NCCc2ccc(Cl)cc2)c2ccco2)cc1 (configuration not stated),–,inactive: -28.6%
CCSc1nc2ccccc2c(OCc2ccccc2Cl)c1C(=O)OC,"inconclusive: 39.8 µM [cytotoxic, single point]",–
Cc1ccc(S(=O)(=O)Cc2nc(-c3ccc(C(=O)NCCCOC(C)C)cc3)oc2C)cc1,–,inactive: 4.84%
O=C(NCC1CCN(Cc2ccccc2F)CC1)Nc1ccc(F)c(Cl)c1,"inconclusive: 35.5 µM [cytotoxic, single point]",–
O=C1c2[nH]nc(-c3ccc(F)cc3)c2C(c2ccccc2F)N1c1ccccc1 (configuration not stated),"inconclusive: 35.5 µM [cytotoxic, partial curve, poor fit]",–
CC(C)CCNC(=O)C1CCN(C(=O)c2cc3sccc3n2Cc2ccc(Cl)cc2)CC1,"inconclusive: 39.8 µM [cytotoxic, single point]",–
Cc1ccc(CS(=O)(=O)c2ncc(Cl)c(C(=O)Nc3nnc(C(C)C)s3)n2)cc1,"inconclusive: 39.8 µM [cytotoxic, single point]",–
Cc1cccc(N(C)S(=O)(=O)c2cc(-c3cnc(C4CC4)o3)ccc2C)c1,"inconclusive: 39.8 µM [cytotoxic, single point]",–
O=C(CCNS(=O)(=O)c1ccc2c(c1)CCN2C(=O)C1CC1)N1CCN(c2cccc(Cl)c2)CC1,"inconclusive: 10 µM [cytotoxic, partial curve, poor fit]",–
CCOc1ccc(/C=C/C(=O)Nc2ccc3nc(N(CC)CC)cc(C)c3c2)cc1OC,"inconclusive: 28.2 µM [cytotoxic, single point]",–
CCc1c(C)sc2c1CCN(Cc1ccc(C#N)cc1)C2c1ccccc1 (configuration not stated),"inconclusive: 22.4 µM [cytotoxic, single point]",–
CCSc1nc2ccccc2c(OCc2ccc(Cl)cc2)c1C(=O)OC,"inconclusive: 28.2 µM [rising, partial curve, poor fit]",–
CCCn1cc(S(=O)(=O)c2cccc(Cl)c2)c(=O)c2cc(F)c(N3CCOCC3)cc21,"inconclusive: 35.5 µM [cytotoxic, partial curve, poor fit]",–
Cc1c(C(=O)NC(C)c2ccccc2)sc2ncnc(N(C)C3CCCCC3)c12 (configuration not stated),"inconclusive: 31.6 µM [cytotoxic, single point]",–
COc1ccc(C(=O)NCCn2cc(SCc3cccc(F)c3)c3ccccc32)cc1OC,–,inactive: -21.5%
COc1ccccc1CNC(=O)CN1C(=O)CCc2cc(S(=O)(=O)N3CCCCC3)ccc21,"inconclusive: 7.94 µM [rising, partial curve, poor fit]",–
COc1ccc(S(=O)(=O)n2nc(C)c(S(=O)(=O)N3CCCCC3)c2C)cc1,"inconclusive: 2.82 µM [cytotoxic, partial curve, poor fit]",–
CCOc1ccc(NC(=O)CSc2oc(-c3ccco3)nc2S(=O)(=O)c2ccc(C)cc2)cc1,–,inactive: 4.33%
CCCN1CCN(CCCNC(=O)c2cc3c(Cl)nc4ccccc4c3s2)CC1,–,inactive: 19.6%
CCCOc1ccc(/C=C/C(=O)Nc2sc(C)c(C)c2C(=O)OCC)cc1OC,–,inactive: 1.23%

Compound,Potency,"activity change, negative = cytotoxicity"
CCOc1ccc(CNC(=O)c2ccc(Sc3ccc(Cl)cc3)c(NC(C)=O)c2)cc1,"inconclusive: 39.8 µM [cytotoxic, single point]",–
CCN(CC)c1nn2c(=O)c(C(=O)NCCc3ccc(C)cc3)cnc2s1,"inconclusive: 2.24 µM [rising, full curve, poor fit]",–
CCCOc1ccccc1-c1nc(SCC(=O)c2ccccc2)n[nH]1,"inconclusive: 39.8 µM [cytotoxic, partial curve, poor fit]",–
CC(=O)Nc1ccc(S(=O)(=O)N2CCC(c3ccncc3)CC2)cc1,"inconclusive: 39.8 µM [cytotoxic, single point]",–
O=C(Nc1ccc(C(=O)N2CCN(c3ccc(F)cc3)CC2)cc1)c1nsc2ccccc12,"inconclusive: 28.2 µM [cytotoxic, partial curve, poor fit]",–
CCc1nn(CC(=O)NCc2ccccc2)c(=O)c2cccn12,–,inactive: 0.0429%
CCCCN(C)C(=O)CSc1c2c(nc3ccc(Cl)cc13)CCCC2,–,inactive: -3.24%
Cc1ccc(NC(=O)CSc2nc(=O)n(Cc3ccccn3)c3c2CCC3)cc1F,"inconclusive: 20 µM [cytotoxic, partial curve, poor fit]",–
O=C(Nc1ccccc1Cl)N1CCC2(CC1)Oc1ccccc1C(=O)N2Cc1ccc(F)cc1,"inconclusive: 35.5 µM [cytotoxic, single point]",–
COc1ccccc1NC(=O)Cn1nnc(C(=O)NCc2cccs2)c1N,–,inactive: -9.4%
O=C(Nc1cccc(C(=O)OCc2cc(=O)n3c4c(sc3n2)CCCC4)c1)c1cccc(F)c1,"inconclusive: 39.8 µM [cytotoxic, single point]",–
COc1ccc(-c2noc(CSc3nc4ccc(C)cc4[nH]3)n2)cc1,"inconclusive: 39.8 µM [cytotoxic, single point]",–
COc1cccc(CNC(=O)c2sc3ncccc3c2-n2c(C)ccc2C)c1OC,"inconclusive: 35.5 µM [cytotoxic, partial curve, poor fit]",–
O=C(Nc1onc2c1CCCC2)c1ccccc1,"inconclusive: 39.8 µM [rising, single point]",–
CCc1ccc(NC(=O)c2cnn(-c3c(C)cccc3C)c2C2CCN(C(=O)OC(C)(C)C)CC2)cc1,"inconclusive: 25.1 µM [cytotoxic, partial curve]",–
CCOC(=O)c1c(C)[nH]c(C)c1S(=O)(=O)N1CCC(C(=O)Nc2ccccc2CC)CC1,"inconclusive: 39.8 µM [cytotoxic, single point]",–
O=C(CSc1nccn1-c1cccc(Cl)c1)Nc1cccc2ccccc12,–,inactive: 4.83%
COc1ccc(-c2nc3cc(C)ccn3c2NC(=O)c2cccc(F)c2)cc1,"inconclusive: 5.01 µM [rising, single point]",–
Cc1cc2c(cc3c(SCc4ccc(Cl)cc4)nncn32)o1,"inconclusive: 22.4 µM [cytotoxic, single point]",–
COCCNC(=O)CCCn1c(SCC(=O)c2ccc(Br)cc2)nc2c(sc3ccccc32)c1=O,"inconclusive: 0.501 µM [rising, full curve, poor fit]",–
O=C(Nc1ccc(O)c(-c2nc3ccccc3o2)c1)c1ccc(Br)cc1,–,inactive: -7.05%

Compound,Potency,"activity change, negative = cytotoxicity"
O=S(=O)(c1ccc(Cl)cc1)c1nnn2c1nc(NC1CCCCC1)c1sccc12,–,inactive: -5.29%
CCn1c(=O)cc(SCC(=O)NCc2ccc(Cl)cc2)c2ccccc21,"inconclusive: 22.4 µM [cytotoxic, single point]",–
COc1cccc(CNCc2cccn2-c2nnc(N3CCN(c4ccccc4)CC3)s2)c1,"inconclusive: 35.5 µM [cytotoxic, single point]",–
O=C(CCn1c(=O)c2sccc2n(CC(=O)Nc2ccccc2)c1=O)NCc1ccccc1Cl,"inconclusive: 0.708 µM [cytotoxic, full curve, poor fit]",–
Cc1ccc(C2CCN(C(=O)Nc3ccc(Cl)c(Cl)c3)C2)cc1 (configuration not stated),"inconclusive: 39.8 µM [cytotoxic, single point]",–
CCOc1ccc2nc(N(Cc3cccnc3)C(=O)C3CCCCC3)sc2c1,"inconclusive: 31.6 µM [cytotoxic, partial curve, poor fit]",–
COc1ccc(Cn2c(CCC(=O)Nc3ccc(C)cc3C)nc3cccnc32)cc1,–,inactive: -1.24%
COc1ccc2oc(=O)cc(CN3CCN(c4ccccc4F)CC3)c2c1,"inconclusive: 31.6 µM [cytotoxic, single point]",–
COc1cc2c(cc1OC)n(CC(=O)c1ccc(F)cc1)c(=O)n1nc(CCn3nc(C)cc3C)nc21,"inconclusive: 8.91 µM [cytotoxic, partial curve, poor fit]",–
COc1cccc(CNC(=O)c2ccc(NC(=O)N3CCCCc4ccccc43)cc2)c1,"inconclusive: 2.51 µM [rising, full curve]",–
Cc1cccc(NC(=O)Cn2cc(C(=O)c3ccco3)c3ccccc32)c1C,"inconclusive: 28.2 µM [cytotoxic, single point]",–
CSc1ccc(CCNC(=O)Cn2ncc3c(=O)oc4ccc(C)cc4c32)cc1,–,inactive: 9.88%
CCCn1c(=O)c2sccc2n2c(CCCC(=O)Nc3ccc(C)c(F)c3)nnc12,"inconclusive: 20 µM [rising, partial curve, poor fit]",–
CCCCN(CC)C(=O)Nc1ccc2c(c1)N(C)C(=O)c1ccccc1S2,"inconclusive: 39.8 µM [cytotoxic, partial curve, poor fit]",–
COc1ccc(-c2noc(CN3CCN(c4ccccc4OC)CC3)n2)cc1OC,"inconclusive: 44.7 µM [rising, single point]",–
CCOc1ccccc1C(=O)Nc1ccc(S(=O)(=O)N2CCCCC2c2cccnc2)cc1 (configuration not stated),"inconclusive: 14.1 µM [cytotoxic, partial curve]",–
CCOc1ccc(NC(=O)CSC2=Nc3ccccc3C3=NC(CC(=O)NCc4ccc5c(c4)OCO5)C(=O)N23)cc1 (configuration not stated),"inconclusive: 0.0562 µM [cytotoxic, single point]",–
COc1ccccc1C(=O)N(Cc1nc(-c2cccc(C)c2)no1)C(C)C,–,inactive: 14%
CC(C)CCOc1ccc(C2N=C(N)Nc3nc4ccccc4n32)cc1 (configuration not stated),–,inactive: -6.93%
Cc1cc(N2CCN(C)CC2)nc2ccc(NC(=O)c3ccc(C(C)(C)C)cc3)cc12,"inconclusive: 39.8 µM [cytotoxic, single point]",–
